Assay results: article PMC10668032
The list shows a part of the results. At the low end of the ranking the order means little.

Each sequence was assayed against SIX1-Q177R homeodomain (UniProt Q15475) (assay: universal protein binding microarray). Settings: Universal all-10-mer PBM (8x60K, AMADID 030236), 300 nM GST-tagged protein, Alexa Fluor 488 anti-GST; buffer, salt, pH and temperature not stated; high values mean tight binding; most listed sequences are background and not binding sites; double strand, one strand shown.

Sequence | binding signal
ATAGTTTA | -0.16 E-score
AAATGGTG | 0.289 E-score
AGTACGAT | -0.0183 E-score
AAGCTCCA | -0.14 E-score
CTTACACA | 0.231 E-score
GTAGCTAC | 0.0399 E-score
AGGTTCTA | -0.08 E-score
CGACGACG | -0.261 E-score
CGGTGCAC | 0.296 E-score
TACGGCTA | -0.0432 E-score
GCGTTTGA | -0.169 E-score
CGACCACC | 0.0861 E-score
GATAGCGA | -0.16 E-score
AATATCGA | -0.0911 E-score
CCCGGCGA | 0.117 E-score
TACAAGGA | -0.0504 E-score
ACCCTTCG | 0.142 E-score
ATTCATAA | -0.187 E-score
AGAGTACA | 0.186 E-score
AGTCAATG | -0.0982 E-score
CATAATTA | -0.0653 E-score
GACCGCCC | -0.176 E-score

Sequence | binding signal
AAAACCTC | -0.132 E-score
ATAAGGGG | 0.02 E-score
CTGCTTAC | -0.048 E-score
CCCTAGTA | 0.18 E-score
GGTCGGAC | 0.0312 E-score
CCGTAGCA | 0.0136 E-score
GGGGCTAC | -0.0569 E-score
GCGGCGAC | -0.0624 E-score
AAATCGTT | -0.114 E-score
ACGATGAC | -0.0343 E-score
TTGAACAA | -0.0106 E-score
CGAGGGCC | -0.0172 E-score
GGGAAAAA | -0.273 E-score
CTAATGAG | -0.168 E-score
AGACTCAT | -0.137 E-score
ACCCACAA | 0.151 E-score
CCTGCTGA | 0.0189 E-score
ATGCCTGA | -0.189 E-score
ACCTATGG | 0.106 E-score
ACTCCTGC | 0.158 E-score
AAAAACTG | -0.053 E-score
ATCAGGAG | 0.019 E-score

Sequence | binding signal
ACGCAACT | -0.013 E-score
CCGACACA | 0.295 E-score
AGCGGGTC | -0.0761 E-score
CCCATCAA | -0.129 E-score
AGGCCAAT | -0.341 E-score
ACTCAGGG | 0.162 E-score
ACCGCGTG | 0.246 E-score
GGTAGGTA | 0.0509 E-score
AATCCTCG | -0.23 E-score
CTTTCCCC | -0.104 E-score
ACCAAAAT | 0.158 E-score
GAAGATCA | -0.124 E-score
CCGGAACG | -0.0542 E-score
CGCCCGGC | 0.0667 E-score
CTCTTTCA | -0.0765 E-score
GAACGACA | 0.238 E-score
CATCGTGG | -0.107 E-score
GAGCGAGA | -0.0569 E-score
ATCTGTCA | -0.139 E-score
CATCCCTC | -0.0291 E-score
ACCGGCCC | 0.0711 E-score
CAAGAGCC | -0.234 E-score

Sequence | binding signal
TATCTCGA | -0.15 E-score
TACATTAA | 0.0361 E-score
CGGGCACG | -0.0183 E-score
AACCGATC | -0.0142 E-score
ACTCTAAT | 0.0905 E-score
TCGCGTCA | 0.118 E-score
GCTAGATA | 0.0333 E-score
AGGTAGAC | -0.00394 E-score
GCACGCCA | -0.0164 E-score
CTATACCC | 0.247 E-score
AGCTGTTC | -0.306 E-score
CGACGGTA | 0.0563 E-score
GGGTTTAC | 0.102 E-score
CTGCGTTA | -0.244 E-score
GCGAGCAA | -0.132 E-score
CATAGTCC | -0.183 E-score
CCCTATCA | -0.0311 E-score
CTCCCCAG | -0.0811 E-score
ACCTCCGG | 0.138 E-score
GACGCCGA | 0.174 E-score
AAGGTTAA | -0.0483 E-score
ACCTCCAC | 0.0541 E-score

Sequence | binding signal
GCGCCTCC | 0.0615 E-score
CGACGTCG | -0.113 E-score
GGTGACAA | 0.0258 E-score
GGTCATAC | -0.0718 E-score
AGCCACCC | 0.115 E-score
CATAGATC | -0.0634 E-score
ATAACTCA | -0.0271 E-score
CGCCCTAA | -0.0647 E-score
CCCTCTAA | -0.0704 E-score
CATTAACA | -0.0111 E-score
CACCGCTG | 0.249 E-score
GTTGCCGA | -0.0647 E-score
AAACCTGA | -0.0946 E-score
CAGTGATC | 0.0143 E-score
AGCGAAGG | -0.159 E-score
CTAGGTAA | 0.0305 E-score
ACTTACCG | 0.0486 E-score
ATTCCCTC | -0.0571 E-score
AGGATTGG | -0.142 E-score
GTAAACCA | 0.0669 E-score
TAATTGGA | -0.0806 E-score
